Measurements taken from PubChem BioAssay AID624296 (National Center for Advancing Translational Sciences (NCATS), 2012).
Several values for one entry are separate records, joined by “and”; a condition that tells them apart may be missing. Equal entries are not always repeated. The campaign covered roughly 350,000 compounds. About 9,900 (2.8%) were called active. The inconclusive results got no clear call from the source; some entries with a clear call stand among them for comparison. The call rests on the fitted dose curve; in most records, active means well fitted activation curve with a large enough effect; inconclusive means small, poorly fitted or top-dose-only effect; inactive means no such curve, though single readings can be large or run the other way. Where the call is inconclusive, the potency comes from a doubtful curve fit.

Assay: A quantitative high throughput screen for small molecules that induce DNA re-replication in MCF 10a normal breast cells. Further: nearly all actives have a fitted effect of over 50% in size. On activity, positive = re-replication: % of control where 0% means no effect.
Details: MCF 10A DNA re-replication, Hoechst nuclear intensity, 48 h; activity, positive = re-replication: at 46.1 µM (top of the series)
Potency means the concentration at half of the fitted maximal effect; tags describe the fitted curve by direction and shape.

SMILES | Potency | activity, positive = re-replication
CC1=NOC(=O)/C1=C\c1ccc(-c2ccc(Cl)cc2Cl)o1 | inconclusive: 13 µM [activator, partial curve, poor fit] | –
COc1ccc(OC)c2c1sc(=NC(=O)c1ccco1)n2C | – | inactive: 19.8%
Cc1noc(C)c1C(=O)OCC(=O)/C=C1/N(C)c2ccccc2C1(C)C | inconclusive: 16.4 µM [activator, single point] | –
CCOC(=O)Nc1cccc(NC(=O)c2cc(OC)cc(OC)c2)c1 | – | inactive: -1.29%
COC(=O)c1sc(-c2ccccc2)cc1NC(=O)c1ccc(OC)cc1 | inconclusive: 0.259 µM [activator, full curve, poor fit] | –
Cc1nc(COC(=O)c2cc(O)c3ccccc3c2O)cs1 | inconclusive: 29.1 µM [activator, single point] | –
CCOC(=O)c1c(C)c(C(=O)Nc2cc(OC)ccc2OC)c(C)n1CC | inconclusive: 25.9 µM [activator, single point] | –
CCOC(=O)c1cc(-c2cccnc2)nn1-c1ccccc1C | inconclusive: 29.1 µM [activator, single point] | –
COC(=O)c1c(NC(NC(=O)CC(C)C)C(Cl)(Cl)Cl)sc2c1CCC2 (configuration not stated) | – | inactive: -0.0679%
CN1CCN(C(=O)c2ccc(CSc3ccc(Cl)cc3)cc2)CC1 | – | inactive: 1.12%
Cn1c(CN2CCOCC2)nc2cc(NC(=O)c3ccc(Cl)cc3)ccc21 | inconclusive: 25.9 µM [activator, partial curve, poor fit] | –
O=c1c2ccccc2sc2c(CO)ccc(NCCN3CCCCC3)c12 | – | inactive: 25.4%
CCn1ncc(/C=N\NC(=O)c2cc(-c3ccc(C)cc3C)nc3ccccc23)c1C | inconclusive: 29.1 µM [activator, single point] | –
C=CCc1cc(Cl)ccc1OCCCNC(C)C | – | inactive: 14.1%
Cc1nc(NCC2CCCO2)[nH]c(=O)c1CCC(C)C (configuration not stated) | inconclusive: 18.4 µM [activator, single point] | –
CC(C(=O)N1CCCCC1)N1CCN(S(=O)(=O)c2ccc(Cl)cc2)CC1 (configuration not stated) | inconclusive: 0.58 µM [activator, partial curve, poor fit] | –
CCN(CC)S(=O)(=O)c1cc(NS(=O)(=O)c2c(Cl)cccc2Cl)ccc1C | inconclusive: 2.06 µM [activator, full curve, poor fit] | –
O=C(Nc1nnc(-c2cccs2)o1)c1cc(-c2ccccc2)nc2ccccc12 | inconclusive: 0.092 µM [activator, full curve, poor fit] | –
CCOC(=O)C1CCN(C(=S)NC2CCCC2)CC1 | inconclusive: 4.61 µM [activator, single point] | –
CC(=O)N(C)Cc1ccc(C(=O)CCl)cc1 | active: 13 µM | –
Brc1ccc2c(c1)[C@H]1OCC[C@H]1[C@@H](c1cccs1)N2 | inconclusive: 23.1 µM [activator, single point] | –
O=C(CN(C(=O)c1csnn1)c1ccccc1)NCc1ccc2c(c1)OCO2 | inconclusive: 0.013 µM [activator, full curve, poor fit] | –
N#Cc1c(NCCCO)nc(-c2ccccc2)c2c1CCCC2 | inconclusive: 29.1 µM [activator, single point] | –

SMILES | Potency | activity, positive = re-replication
COc1cccc(C=NNc2nc3ccccc3s2)c1OC | inconclusive: 23.1 µM [activator, single point] | –
CC1CCCN(S(=O)(=O)c2ccc(NC(=O)Cn3nnc(-c4ccccc4F)n3)cc2)C1 (configuration not stated) | inconclusive: 16.4 µM [activator, partial curve, poor fit] | –
O=C(COC(=O)c1ccccc1Br)Nc1cc(S(=O)(=O)N2CCOCC2)ccc1N1CCCC1 | inconclusive: 29.1 µM [activator, single point] | –
CCN(C1=NS(=O)(=O)c2ccccc21)N(CC)S(=O)(=O)c1ccc(C)cc1 | inconclusive: 16.4 µM [activator, single point] | –
CSCCC1C(C#N)=C(N)Oc2n[nH]c(-c3cccs3)c21 (configuration not stated) | inconclusive: 35.5 µM [activator, single point] | –
COc1ccc2[nH]c(=O)c(CN(CC3CCCO3)C(=O)Nc3ccc(F)cc3)cc2c1 (configuration not stated) | inconclusive: 29.1 µM [activator, single point] | –
C=C(C)COc1ccc(-c2nc(N)ncc2Oc2ccc(OC)cc2)c(O)c1 | inconclusive: 23.1 µM [activator, single point] | –
O=C(CN(C(=O)c1ccc(Cl)cc1Cl)N1C(=O)C2C3C=CC(C3)C2C1=O)c1ccc(F)cc1 (configuration not stated) | inconclusive: 25.9 µM [activator, partial curve, poor fit] | –
CCCCOc1ccc(C(=O)Nc2ccc(CN3CCOCC3)cc2)cc1 | inconclusive: 25.9 µM [activator, single point] | –
COc1cc(SC)ccc1C(=O)N1CCN(c2ccccc2OC)CC1 | active: 18.4 µM | –
CCOC(=O)c1ccc(S(=O)(=O)Nc2ccccc2-c2nnn(CC)n2)cc1 | – | inactive: 3.72%
O=C(Nc1cccc(NC(=O)c2cncc(Br)c2)c1)c1cncc(Br)c1 | – | inactive: 3.38%
CC(C)Cn1c(=O)c(C(=O)Nc2ccccc2S(N)(=O)=O)c(O)c2ccccc21 | inconclusive: 18.4 µM [activator, partial curve, poor fit] | –
O=C(Nc1cccc(C(=O)O)c1)Nc1cccc2ccccc12 | – | inactive: 3.41%
O=C(Cn1cnc(S(=O)(=O)N2CCCC2)c1)Nc1cccc(F)c1 | – | inactive: 10.6%
Cc1cc(S(=O)(=O)c2ccc([N+](=O)[O-])cn2)ccc1Br | inconclusive: 13 µM [activator, single point] | –
Cn1ccsc1=NC(=O)c1cc(S(=O)(=O)N2CCOCC2)ccc1F | – | inactive: 6.49%
CCOC(=O)N1CCN(C(=O)c2cc(COc3cccc(C(C)=O)c3)on2)CC1 | inconclusive: 13 µM [activator, partial curve, poor fit] | –
CN(CC(=O)Nc1cccc(F)c1)C(=O)C1CCN(S(=O)(=O)c2ccc3c(c2)OCCO3)CC1 | inconclusive: 23.1 µM [activator, partial curve, poor fit] | –
COc1ccc(/C=C2/N=C(SC)NC2=O)cc1OC | inconclusive: 29.1 µM [activator, single point] | –
COc1ccc(/C=C/c2c(-c3ccc(OC)cc3)oc3cccnc23)cc1 | inconclusive: 5.8 µM [activator, partial curve, poor fit] | –
Cc1c(C(=O)Nc2ccc3oc(-c4cccnc4)nc3c2)oc2ccccc12 | inconclusive: 3.26 µM [activator, full curve] | –
CN(C)c1oc(/C=C/c2ccccc2)nc1C#N | inconclusive: 18.4 µM [activator, single point] | –

SMILES | Potency | activity, positive = re-replication
Cc1cc(C)c(S(=O)(=O)N2CCCc3ccccc32)c(C)c1 | inconclusive: 18.4 µM [activator, partial curve, poor fit] | –
O=C(N/C(C(=O)N1CCOCC1)=C(\Sc1ncccn1)c1ccccc1)c1ccccc1 | – | inactive: 0.961%
Cc1c(C#N)c(N)nc(Cl)c1C#N | – | inactive: -10.7%
CN(C)CCN(CC1CCCN(Cc2ccccc2F)C1)C(=O)c1ccc(Cl)cc1 (configuration not stated) | inconclusive: 18.4 µM [activator, partial curve, poor fit] | –
O=C(O)c1ccc(-n2nc(C(F)(F)F)c3c2CCCC3)cc1 | inactive and inconclusive: 116 nM [activator, partial curve, poor fit] | –
CCCCCCCOc1ccc(C2CC(=O)N(C)C2=O)cc1 (configuration not stated) | inconclusive: 20.6 µM [activator, single point] | –
Cc1cc(C(=O)N/N=C/c2cccnc2)c2ccccc2n1 | inconclusive: 20.6 µM [activator, single point] | –
O=C(CNC(=O)c1ccccc1)OCCCOC(=O)CNC(=O)c1ccccc1 | – | inactive: -1.41%
Cc1cccc(N=C2NC(=O)/C(=C/c3cccn3C)S2)c1 | inconclusive: 18.4 µM [activator, single point] | –
CCOC(=O)N1CCN(c2nc(-c3cccs3)nc3ccccc23)CC1 | inconclusive: 20.6 µM [activator, single point] | –
CCCCn1c(=O)[nH]c(=O)c2c1nc(-c1ccc(-c3ccc(F)cc3)o1)n2C | active: 10.3 µM | –
O=C(CC1(O)C(=O)Nc2ccc(Br)cc21)c1ccc2c(c1)OCO2 (configuration not stated) | inconclusive: 20.6 µM [activator, single point] | –
COc1cccc(-c2csc(NC(=O)Nc3ccccc3)n2)c1 | inconclusive: 29.1 µM [activator, single point] | –
O=CNc1c(Cl)cc2c(c1Cl)Cc1cc([N+](=O)[O-])ccc1-2 | inconclusive: 13 µM [activator, partial curve, poor fit] | –
N#Cc1ccc(CSc2ccc(S(=O)(=O)N3CCCCCC3)cn2)cc1 | – | inactive: 4.84%
Cc1ccc2[nH]c(CN3CCC(CO)(CC4CCCCO4)CC3)c(C)c2c1 (configuration not stated) | – | inactive: 2.63%
COC(=O)c1c(-c2ccc(SC)cc2)sc2ccccc12 | inconclusive: 0.92 µM [activator, full curve, poor fit] | –
COC(=O)c1ccc(NS(=O)(=O)c2cc(-c3cc(C)no3)ccc2OC)cc1 | – | inactive: 24.7%
CN(CC(=O)Nc1cccc(F)c1)C(=O)c1cc(-c2ccccc2)nc2ccccc12 | inconclusive: 29.1 µM [activator, single point] | –
COc1ccc(N2CCN(CC(O)COc3ccc(C)cc3C)CC2)cc1 (configuration not stated) | inconclusive: 16.4 µM [activator, single point] | –
Cc1nn(-c2ccccc2)c(C)c1NC(=O)COC(=O)CC(C)c1ccccc1 (configuration not stated) | inconclusive: 29.1 µM [activator, single point] | –
